# Measured values from PubChem BioAssay AID2101 (National Center for Advancing Translational Sciences (NCATS), 2009).
# The campaign covered roughly 330,000 compounds. About 300 (0.091%) were called active. The shares of active, inactive and inconclusive entries below differ from those in the screen. Calls follow the shape of the dose curve; as a rule, active = well fitted inhibition curve with a large enough effect; inconclusive = small, poorly fitted or top-dose-only effect, or effect the other way, or another doubt; inactive = no such curve, though single readings can be large or run the other way. Potencies of inconclusive entries are left out as doubtful fits.
# Biological target: Lysosomal acid glucosylceramidase (Homo sapiens) (UniProt P04062)
# Assay: qHTS Assay for Inhibitors and Activators of N370S glucocerebrosidase as a Potential Chaperone Treatment of Gaucher Disease;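 as to activity change, negative = inhibition: 0% = full enzyme activity and -100% = no enzyme basal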
# Conditions: N370S GC spleen homogenate, 4MU-glucoside fluorescence; activity change, negative = inhibition: at 59.4 µM (top of the series) unless noted
# Potency is read from the fitted curve at half-maximal effect.
SMILES,Potency,"activity change, negative = inhibition"
Clc1cccc(Cl)c1/C=C/c1nc2ccccc2[nH]1,"inconclusive [activator, single point]",–
CSc1ccc(NC(=O)NCCCN2CCC(Cc3ccccc3)CC2)cc1,"inconclusive [inhibitor, full curve, poor fit]",–
O=C(CSc1nnnn1C1CCCCC1)Nc1nc2c(s1)CCCC2,"inconclusive [activator, partial curve, poor fit]",–
Cc1nc(N2CCc3ccccc3C2)[nH]c(=O)c1Cc1ccccc1,–,inconclusive: 33.6% [activator]
CC(C)CC1C(C#N)=C(N)OC2=C1C(=O)CC(c1ccccc1)C2 (stereo not drawn),"inconclusive [activator, partial curve]",–
Cc1ccccc1CN(C)Cc1cc(=O)oc2c(C)c(C)ccc12,"inconclusive [activator, single point]",–
N/C(=N\OC(=O)c1ccc(Cl)cc1)c1ccccn1,–,inactive: -1.62%
CCN(Cc1cc(OC)c(OC)c(OC)c1)C(=S)Nc1cccc(SC)c1,"inconclusive [inhibitor, single point]",–
COc1ccc(N=c2cc(-c3ccc(OC)cc3)oc3ccccc23)cc1,"inconclusive [inhibitor, partial curve]",–
Cc1cc(C(=O)N(C)C)sc1-c1ccccc1,"inconclusive [activator, partial curve]",–
O=C1/C(=C/c2ccc(O)cc2)COc2ccccc21,"inconclusive [inhibitor, partial curve]",–
CSc1cccc(NC(=O)CN(C)S(=O)(=O)c2cnc[nH]2)c1,"inconclusive [inhibitor, single point]",–
CC(C)c1ccc(S(=O)(=O)c2n[nH]n3c2nc(=O)c2ccccc23)cc1,–,inactive: 2.64%
Nc1ccc(Br)cc1-c1nc2ccccc2[nH]c1=O,"inconclusive [activator, single point]",–
CC(C)(C)c1cc(NCc2ccccn2)n2ncc(-c3ccc(Cl)cc3)c2n1,"inconclusive [activator, single point]",–
COc1ccccc1NC(=O)CSc1nc2ccccc2cc1Cc1ccccc1,"inconclusive [activator, single point]",–
CCOc1ccc2nc(N(CCN(CC)CC)C(=O)/C=C/c3cccs3)sc2c1,"inconclusive [inhibitor, single point]",–
CCC(C(=O)OCC(=O)Nc1ccccc1-c1ccccc1)c1ccccc1 (stereo not drawn),"inconclusive [activator, single point]",–
CC(Sc1nc(-c2ccccc2)cc(C(F)(F)F)n1)C(=O)NCCN1CCOCC1 (stereo not drawn),"inconclusive [inhibitor, partial curve, poor fit]",–
O=C(COC(=O)c1ccccc1S(=O)(=O)N1CCCCC1)NCC(F)(F)F,"inconclusive [activator, partial curve, poor fit]",–
CC(O)C1CCC2C3CC[C@H]4CC(O)CCC4(C)C3CC3(OCCO3)C12C (stereo partly drawn),"inconclusive [inhibitor, single point]",–
Cc1cccn2cc(CNc3ccccc3)nc12,–,inactive: 1.82%

SMILES,Potency,"activity change, negative = inhibition"
Cc1[nH]c2ccc(F)cc2c1CCN(Cc1ccncc1)C(=S)Nc1cccc(F)c1,"inconclusive [inhibitor, partial curve]",–
Cc1onc(-c2ccccc2Cl)c1C(=O)Nc1cccc(-c2nc3ncccn3c2C)c1,"inconclusive [activator, partial curve]",–
O=C(/C=C/Nc1cccc(F)c1)c1ccco1,–,inactive: -0.596%
COc1ccc(NC(C)C(=O)N/N=C/c2ccccc2OCc2ccc(Br)cc2)cc1 (stereo not drawn),–,inactive: -7.55%
C=CCOC(=O)C1=C(C)N=c2s/c(=C3\C(=O)N(CC(=O)O)c4ccccc43)c(=O)n2C1c1ccc(OC)cc1 (stereo not drawn),–,inactive: -17.1%
O=C(NC(=S)NC1C2CC3CC(C2)CC1C3)c1ccccc1 (stereo not drawn),"inconclusive [activator, single point]",–
Nc1ncc(-c2ccccc2)c(-c2ccc(O)cc2O)n1,active: 14.1 µM,–
CC(=O)c1ccc(NC(=O)CSc2nccn2CCc2ccccc2)cc1,"inconclusive [activator, partial curve]",–
O=c1c2c3c(sc2ncn1-n1cccc1)CCCCC3,–,inconclusive: 32% [activator]
CNC(=O)N1c2ccccc2CCc2ccccc21,"inconclusive [activator, single point]",–
OCc1cc2c(cn1)[nH]c1ccccc12,"inconclusive [inhibitor, full curve]",–
COc1cc(/C=C2\SC(=N)N(c3ccc4c(c3)OCO4)C2=O)cc(OC)c1O,"inconclusive [inhibitor, partial curve]",–
O=C(/C=C\Nc1ccc2c(c1)OCO2)c1ccccn1,–,inactive: 16.4%
CCOC(=O)CSc1nc(-c2ccc3c(c2)OCO3)ccc1C#N,"inconclusive [activator, partial curve, poor fit]",–
CCCC[C@@H]1C[C@H]1[C@@H](NP(=O)(c1ccccc1)c1ccccc1)c1ccccc1OC,"inconclusive [activator, single point]",–
N=c1c2c(ncn1Cc1ccco1)Oc1c(ccc3ccccc13)C2c1ccccc1 (stereo not drawn),"inconclusive [activator, partial curve]",–
COC(=O)c1ccc(CSc2n[nH]c(=S)s2)o1,–,inactive: 21.2%
Cc1cccc(N(Cc2cc3ccc(C)cc3[nH]c2=O)S(=O)(=O)c2ccccc2)c1,"inconclusive [activator, full curve]",–
CC1(C)CN(c2ccc(-c3ccnc4ncnn34)cc2)C1=O,"inconclusive [activator, partial curve]",–
Cc1ccc2nc(SCC(=O)Nc3ccc(F)cc3)nc(=O)n2c1,–,inactive: -2.83%
Cc1ccc2nc3c(cc(C(=O)NCCN4CCOCC4)c(=N)n3CCCN3CCOCC3)c(=O)n2c1,"inconclusive [activator, single point]",–
